This note sets out measurements from PubChem BioAssay AID463173 (ICCB-Longwood Screening Facility, Harvard Medical School, 2010).

Hit rate of the full screen: of about 52,000 compounds, about 4,300 (8.3%) were called active. Rule as the data show it: active = survival mostly below about 52% (no sharp cut-off); inactive = mostly above about 56%. The list shows a part of the results.

The test system of this assay is DeltatarO mutant. Kind of assay: growth inhibition of S. aureus wild type versus tarO mutant, primary screen, teichoic acid synthesis inhibitors, RN4220, OD600 (AID 463173). The settings on record: OD600, 18 h, active compounds read low, screened at 18.75 µg/mL (by protocol).
Regarding `CCCN(CCC)CCNC(=O)C1CCCN(S(=O)(=O)c2cccc3nsnc23)C1` (stereo not drawn), the survival is inactive: 96%. The result for `CCCCCOC(=O)c1ccc(OC(=O)c2sc3ncn(Cc4cccc(F)c4)c(=O)c3c2C)cc1` reads inactive: 74%; that for `Cc1ccc(C)c(N2CCN(CCCNC(=O)c3nnc(Cc4ccc(F)cc4Cl)o3)CC2)c1`, inactive: 54%.

As for `CCn1c(CCNC(=O)C2CCCO2)nnc1SC` (stereo not drawn), the survival is inactive: 104%. As to `NCCNC(=O)c1c(O)c2cccc3c2n(c1=O)CCC3`, the survival was inactive: 101%. On to `Cc1ccccc1N(CC(=O)NC1CCCC1)C(=O)c1csnn1`, for which the survival was inactive: 93%. The result for `Cc1ccc(C)c(OC(=O)CSc2nnc(-c3ccc4c(c3)OCO4)o2)c1` reads inactive: 84%; that for `COC(=O)c1ccc(Cn2c(SCC(=O)N(C)c3ccccc3)nc3ccccc32)cc1`, inactive: 60%; that for `CCOc1cc(C(=O)Nc2ccc(S(=O)(=O)Nc3cc(OC)nc(OC)n3)cc2)cc(OCC)c1OCC`, inactive: 67%. The result for `CCOc1cc2[nH]c(=O)n(CCCC(=O)N3CCN(c4cccc(Cl)c4)CC3)c(=O)c2cc1OCC` reads inactive: 81%; that for `Cc1nc(SCc2ccc(Cl)cc2)c(C#N)c(C)c1Cl`, inactive: 46%; that for `COc1ccc(OC)c(CNc2sc3c(c2C(=O)Nc2cc(OC)ccc2OC)CCCC3)c1`, inactive: 73%. The figure for `C=CCn1c(-c2ccccc2)c[nH]c1=S` is inactive: 76%. As to `COc1ccc(OC)c(NC(=O)N2CCC(CN3CCCCC3)CC2)c1`, the survival is inactive: 75%. The figure for `CC(C)Cn1cc(C(=O)N2CCN(c3cccc(Cl)c3)CC2)c2c3ccccc3n(C)c2c1=O` is inactive: 59%. Turning to `CCOC(=O)c1cnc2ccc(OCC)cc2c1Nc1cc(Cl)c(OC)cc1OC`, the survival was active: 51%.

For the compound `CC(=O)N1CCCc2cc(S(=O)(=O)N3CCCC(C(=O)Nc4cccc(Cl)c4C)C3)ccc21` (stereo not drawn), the survival was inactive: 67%.

With `COC(=O)C1=C(C)N(Cc2cccnc2)C(=O)C1`, the survival is inactive: 89%.

`CCn1c(SCC(=O)c2ccccc2)nnc1-c1ccco1`: the survival was inactive: 86%. For the compound `O=C(Cn1cnc2nc3c(cc2c1=O)CCCC3)N1CCN(c2ccccc2)CC1`, the survival was inactive: 89%. Take `Cc1cc(C)cc(NC(=O)Cn2c3ncccc3c(=O)n2-c2ccc(C)c(C)c2)c1`: the survival was inactive: 78%. The figure for `CCC(NC(=O)c1ccccc1NC(=O)c1ccco1)C(=O)NC1CCCCC1` (stereo not drawn) is inactive: 73%; for `O=C(NCc1ccccc1)c1ccc2c(c1)nc1n2CCCCC1` it is inactive: 67%.

With `CCc1ccc(NC(=O)Cn2c(=O)n(CC3CCCO3)c(=O)c3cc(OC)c(OC)cc32)cc1` (stereo not drawn), the survival was inactive: 98%.

Consider `O=C(Cn1c(=O)c2cccn2c2ccc(F)cc21)N1CCN(c2ccccc2)CC1`, for which the survival is inactive: 84%. The result for `Cc1ccc(-c2cc(C(F)(F)F)c(C#N)c(SCC(=O)O)n2)cc1` reads inactive: 66%; that for `COc1ccc(NC(=O)Nc2ccccc2OCc2cc(=O)n3ccccc3n2)c(OC)c1`, inactive: 117%; that for `Cc1ccccc1CNC(=O)C(=O)NCC(c1cccs1)S(=O)(=O)c1ccc(Cl)cc1` (stereo not drawn), inactive: 80%. The figure for `O=C(CN1C(=O)C2CCCCN2c2ccc(C(=O)N3CCCC3)cc21)NCc1cccc(F)c1` (stereo not drawn) is inactive: 66%; for `Cc1cccc(N2CCN(Cc3nnc(-c4ccc5c(c4)OCO5)o3)CC2)c1C` it is inactive: 83%. With `CCc1nn2c(=O)cc(COc3ccc(/C=C(\C#N)C(=O)Nc4ccc(C)cc4)cc3)nc2s1`, the survival was inactive: 91%.

For the compound `Cc1ccc(-c2c3c(=O)n(C)c(=O)n(C)c3cn2-c2cc(C)ccc2O)cc1`, the survival was inactive: 75%. The figure for `Cc1ccc(-n2ncc3c(=O)n(CC(=O)N(C)C)cnc32)cc1` is inactive: 101%; for `COc1ccc(N2CCN(C3C(=O)c4ccccc4N3C(C)=O)CC2)cc1` (stereo not drawn) it is inactive: 98%. The result for `COc1cccc(NC(=O)Cn2c(=O)n(CC(=O)NCCc3ccccc3)c(=O)c3sccc32)c1` reads active: 45%; that for `COCCN1Cc2cccc(C(=O)Nc3ccc(Cl)cc3Cl)c2C1=O`, inactive: 59%.

`CCN(CC)c1ccc(NC(=O)CN2C(=O)c3cccnc3Sc3ccccc32)c(C)c1`: the survival is active: -2%.

For `CC(=O)N(c1nnc(-c2ccc(C)cc2)s1)C1CCCC1`, the survival is inactive: 98%.

As for `CC(=O)N1CCc2c(sc3c2c(=O)n(CCc2ccccc2)c(=O)n3Cc2cccc(C)c2)C1`, the survival is inactive: 98%. The result for `CC(=O)N1c2ccc(S(=O)(=O)N3CCN(c4cccc(Cl)c4)CC3)cc2CC1C` (stereo not drawn) reads inactive: 115%. The result for `CC(C)NC(=O)Cn1nc(N2CCN(c3ccccc3)CC2)ccc1=O` reads inactive: 84%. Consider `COc1ccc2oc(-c3ccc(C)c(NC(=O)CSc4ccc(Cl)cc4)c3)nc2c1`, for which the survival is active: 51%. The result for `Cc1ccc(Cn2cc(S(=O)(=O)c3ccc(C)cc3)c(=O)c3cc(F)c(N4CCCC4)cc32)cc1` reads inactive: 90%; that for `Cc1ccc(CNC(=O)C2CCN(C(=O)c3cnn(-c4ccccc4)c3-n3cccc3)CC2)cc1`, inactive: 74%.

Consider `CCOc1cccc(NC(=O)c2ccc(F)c(S(=O)(=O)N(CC)c3cccc(C)c3)c2)c1`, for which the survival is inactive: 86%. Consider `Cc1c(Cl)cccc1NC(=O)CSc1nc(=O)n(Cc2cccnc2)c2c1CCC2`, for which the survival is inactive: 100%. The figure for `Cc1c(Cl)cccc1-n1ncc(C(=O)Nc2ccc(F)cc2F)c1C1CCN(C(=O)OC(C)(C)C)CC1` is inactive: 81%; for `Cc1cc(Cl)ccc1NS(=O)(=O)c1ccc2c(c1)CC(C)N2C(=O)C1CCC1` (stereo not drawn) it is inactive: 81%; for `O=C1CC(c2nc(-c3ccccc3)no2)CN1c1ccc2c(c1)OCCO2` (stereo not drawn) it is inactive: 93%. The figure for `CCOc1ccc(S(=O)(=O)Nc2ccc(-c3ccc(OC)nn3)cc2)cc1` is inactive: 82%; for `CCC(Sc1nc2nccnc2c(=O)n1Cc1ccc(C)cc1)C(=O)NC1CCCCC1` (stereo not drawn) it is active: 39%; for `CC1(C)CC2CC(C)(CN2C(=O)c2cccs2)C1` (stereo not drawn) it is inactive: 78%. The result for `CCc1nn2c(=O)c(S(=O)(=O)Nc3cccc(F)c3)c(C)nc2s1` reads inactive: 70%. Consider `CCCNC(=O)N1CCN(S(=O)(=O)c2ccc3c(ccn3C)c2)CC1`, for which the survival was inactive: 83%. The figure for `COc1cc2c(c(OC)c1)C(c1cc(OC)c(OC)c(OC)c1)CC(=O)N2` (stereo not drawn) is inactive: 78%.

Consider `Cc1c2cnn(-c3ccccc3)c(=O)c2c(C)n1CC(=O)NCc1ccccc1`, for which the survival was inactive: 93%.

On to `Cc1ccc(Cl)cc1NS(=O)(=O)c1cc2c3c(c1)CC(=O)N3CCC2`, for which the survival is inactive: 92%.

In the case of `Cc1cccc(-n2c(SCC(=O)c3ccccc3)nnc2-c2ccc(Br)cc2)c1`, the survival was inactive: 78%.

For the compound `Cc1ccc(CNC(=O)Cn2c(=O)n(-c3cccc(Cl)c3)c(=O)c3sc4ccccc4c32)cc1`, the survival was inactive: 88%. The figure for `CCOC(=O)C1CCCN(S(=O)(=O)c2csc(C(N)=O)c2)C1` (stereo not drawn) is inactive: 74%; for `COc1ccccc1N1CCN(C(=O)c2cc3ccc4ccc(C)[nH]c4c3n2)CC1` it is inactive: 74%; for `CCOc1ccc(-c2cc3nc(C4CCN(C(=O)OC(C)(C)C)CC4)c(C(=O)Nc4ccc(C)cc4C)cn3n2)cc1` it is inactive: 63%. The result for `O=C(CC1SC(=NC2CCCCC2)NC1=O)Nc1ccccc1` (stereo not drawn) reads inactive: 89%; that for `CCC(C)NC(=O)c1nc2c(nnn2Cc2ccccc2Cl)c(=O)[nH]1` (stereo not drawn), inactive: 85%. As to `O=C(CN(C(=O)Cn1nnc(-c2cccs2)n1)C1CCCC1)NCc1ccccc1`, the survival is inactive: 90%.

In the case of `CC(=O)Nc1ccccc1N1CCCCC1`, the survival is inactive: 100%. The figure for `Cc1cccc(C(=O)NCC(=O)OCc2cc(=O)n3nc(C4CC4)sc3n2)c1` is inactive: 69%; for `CCOC(=O)Cn1c(=O)n(C2CCCCC2)c2nc(-c3cccc(OC)c3)nc(C(N)=O)c21` it is inactive: 91%. The figure for `Cc1cc(C)cc(NC(=O)CCc2c(C)nc3c4cccnc4nn3c2C)c1` is inactive: 99%; for `COc1ccc(CCNC(=O)c2ccc(CNS(=O)(=O)c3ccccc3)cc2)cc1OC` it is inactive: 119%. The figure for `COc1cc(NC(=O)c2ccc(NC(=O)N3CCSc4ncccc43)cc2)cc(OC)c1` is inactive: 84%; for `CCOc1cccc2sc(N(CCN(CC)CC)C(=O)c3ccco3)nc12` it is inactive: 118%; for `CC(C)(C)OC(=O)N1CCC(c2c(C(=O)N3CCN(C(=O)c4ccco4)CC3)cnn2-c2ccccc2)CC1` it is inactive: 67%. For `Cc1cccc(CCNC(=O)C2CCCN(S(=O)(=O)c3ccc4c(c3)oc(=O)n4C)C2)c1` (stereo not drawn), the survival is inactive: 102%.

With `O=C(CSc1cn(CC(=O)N2CCCC2)c2ccccc12)Nc1cc(C(F)(F)F)ccc1Cl`, the survival was inactive: 52%.

On to `CCC1CN(C(=O)Nc2ccc(C(=O)O)cc2)c2cc(Cl)ccc2O1` (stereo not drawn), for which the survival was inactive: 82%. The figure for `CC(CNC(=O)CCCn1c(=O)c2cccn2c2cccnc21)c1ccccc1` (stereo not drawn) is inactive: 95%. The result for `O=C(c1ccc(CS(=O)c2ccccc2Cl)o1)N1CCN(c2cccc(Cl)c2)CC1` (stereo not drawn) reads active: 51%; that for `COc1cccc(CNC(=O)c2ccc(NC(=O)N3CC(C)Sc4ccccc43)cc2)c1` (stereo not drawn), inactive: 62%; that for `Cc1ccccc1Nc1c(-c2ccncc2)nc2ccc(Cl)cn12`, inactive: 118%.

Regarding `CCOc1ccc(NC(=O)CCS(=O)(=O)c2ccc(Br)cc2)cc1`, the survival is inactive: 83%.

As to `COc1ccc(/C=C(/C#N)c2nc(-c3ccc(Br)cc3)cs2)cc1`, the survival was inactive: 62%. The result for `CCOC(=O)c1ccc(N2C(=O)c3n[nH]c(-c4cccs4)c3C2c2ccc(Cl)cc2Cl)cc1` (stereo not drawn) reads inactive: 61%; that for `Cc1cc(Br)ccc1NC(=O)C1CCN(S(=O)(=O)c2ccc(Br)s2)CC1`, inactive: 78%. The figure for `CCC(=O)N1CCc2cc(S(=O)(=O)CCC(=O)NCc3cccc(OC)c3)ccc21` is inactive: 117%; for `COc1ccc(NC(=O)c2c(C)oc3ccc(O)c(CN4CCN(Cc5ccccc5)CC4)c23)cc1` it is inactive: 56%.

On to `COc1cc(NC(=O)c2c(C)oc3ncnc(N4CCCCC4)c23)cc(OC)c1`, for which the survival is inactive: 128%. The result for `Cc1ccc2c(c1)c(=O)c1ccccc1n2CCCC(=O)Nc1c(F)cccc1F` reads inactive: 53%.
